Results reported in the supplement of paper PMC3334620.
The full ranking holds about 33,000 sequences; the median of “E-score (-0.5 to 0.5)” is about -0.056, and the highest 2% start at about 0.38. Some of the results follow.

What follows are sequences tested against Stb4 (UniProt P50104) (assay: PBM E-score (8-mer binding enrichment) (E-score (-0.5 to 0.5)); higher = stronger / more preferred TF binding; most listed sequences are background and not binding sites). Details: protein concentration: 200 nM; construct: GST-DNA-binding domain.
In short: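 Detection of bound protein used fluorescent anti-GST, with scans normalised by masliner. The proteins were GST-tagged yeast transcription factors applied at about 100-200 nM to universal all-10-mer Agilent arrays made double-stranded by primer extension. Each ungapped eight-base word, pooled with its reverse complement, was scored with an E-score from the Universal PBM Analysis Suite.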
For CCAAAAAG, the “PBM E-score” value was -0.134. In the case of GTGTTATA, the “PBM E-score” value is reported as -0.0355. ACCACGGG was tested, and the “PBM E-score” value was 0.134. With AATTTTAC the “PBM E-score” value was -0.0134. For CCCGCCGA, the “PBM E-score” value was 0.367. For ACATTAAG, the “PBM E-score” value was -0.154. With ACCGGTTA the “PBM E-score” value was 0.286. GGAGGCTA was tested, and the “PBM E-score” value was 0.0179. With CCCAAGGC the “PBM E-score” value was -0.178. With GTTGGGTA the “PBM E-score” value was -0.207. In the case of ATAATCGC, the “PBM E-score” value is reported as -0.083. In the case of AGGGTTCG, the “PBM E-score” value is reported as 0.0469. TCCTTGAA was tested, and the “PBM E-score” value was -0.104. With ACGGATAT the “PBM E-score” value was 0.407. In the case of CCAGGTCC, the “PBM E-score” value is reported as 0.0393. For TATTGACA, the “PBM E-score” value was -0.0808. ACAGCCCT was tested, and the “PBM E-score” value was -0.116. For GTTATCTA, the “PBM E-score” value was -0.0202. In the case of CGACATCG, the “PBM E-score” value is reported as 0.0858. In the case of CTCTCACC, the “PBM E-score” value is reported as -0.0864. GACCAGCA was tested, and the “PBM E-score” value was -0.245. With AACACCGT the “PBM E-score” value was -0.0272. GCCCCCCC was tested, and the “PBM E-score” value was -0.167. With AATTAGCT the “PBM E-score” value was -0.0435. With AGCGCGAA the “PBM E-score” value was 0.0663. With CTGCGGAA the “PBM E-score” value was 0.197. In the case of GATATTCA, the “PBM E-score” value is reported as 0.101. CAAGCATA was tested, and the “PBM E-score” value was -0.0827. With AGGGGTAT the “PBM E-score” value was -0.116. With CTATAATA the “PBM E-score” value was -0.0792. For GTCGCGGA, the “PBM E-score” value was 0.194. For AACATAGC, the “PBM E-score” value was -0.0662. With GCATAGGC the “PBM E-score” value was -0.247. For CACATCCA, the “PBM E-score” value was -0.0807. For ACGCCGTA, the “PBM E-score” value was -0.208. In the case of CCAAATAC, the “PBM E-score” value is reported as -0.121. In the case of ACAACACT, the “PBM E-score” value is reported as -0.184. For CTCGGAAA, the “PBM E-score” value was 0.479. With CTTGCAGA the “PBM E-score” value was -0.113. In the case of GGATGTTA, the “PBM E-score” value is reported as 0.265. CCCTCTTA was tested, and the “PBM E-score” value was -0.264. In the case of CAACGTAC, the “PBM E-score” value is reported as -0.254. In the case of AAGGCTTG, the “PBM E-score” value is reported as -0.181. For CCAGCGGA, the “PBM E-score” value was -0.0293. For ACTAAATA, the “PBM E-score” value was -0.00118. With CGATAGCG the “PBM E-score” value was 0.0721. For ACGCATGC, the “PBM E-score” value was 0.0904. With GAAAGCGC the “PBM E-score” value was -0.0508. GAACCTTC was tested, and the “PBM E-score” value was -0.0495. For GTAAAAGA, the “PBM E-score” value was -0.245. For ACCAAAGT, the “PBM E-score” value was -0.199. For TTCCTCAA, the “PBM E-score” value was -0.14. For ACAGCTGG, the “PBM E-score” value was -0.284. AACCAGTG was tested, and the “PBM E-score” value was -0.201. For CGAAGCAG, the “PBM E-score” value was 0.0839. CGTGTACA was tested, and the “PBM E-score” value was -0.0735. In the case of CACTTTAA, the “PBM E-score” value is reported as -0.0043. For CTAATTTA, the “PBM E-score” value was -0.0483. CCTAGACG was tested, and the “PBM E-score” value was -0.065. In the case of CACTGCAG, the “PBM E-score” value is reported as -0.081. With AGATTCGC the “PBM E-score” value was -0.19. For ATACCACG, the “PBM E-score” value was 0.0304. With ATGGCGTG the “PBM E-score” value was -0.149. In the case of ACCAGCTC, the “PBM E-score” value is reported as -0.0869. For CGTCAACG, the “PBM E-score” value was -0.0452. With ACATCGCG the “PBM E-score” value was -0.139. In the case of TAAGTTAA, the “PBM E-score” value is reported as -0.0707. For CCTGCCGC, the “PBM E-score” value was 0.0376. For TCGGTAAA, the “PBM E-score” value was 0.433. In the case of GATTGTGC, the “PBM E-score” value is reported as 0.0549. ATCCTTTG was tested, and the “PBM E-score” value was -0.0972. In the case of CCGCCGCG, the “PBM E-score” value is reported as 0.255. For ACCTTTTA, the “PBM E-score” value was -0.206. For GTATGCAC, the “PBM E-score” value was -0.0733. With CACTTTTC the “PBM E-score” value was -0.0102. For GATCGGCC, the “PBM E-score” value was 0.218. With CCTGGATA the “PBM E-score” value was -0.0829. With ATGCCCGG the “PBM E-score” value was 0.274. AAAATCCT was tested, and the “PBM E-score” value was 0.0795. For GAGTACTC, the “PBM E-score” value was -0.00922. GCAGTGTA was tested, and the “PBM E-score” value was -0.1. In the case of TGGTGGAA, the “PBM E-score” value is reported as -0.133. For AACACTCA, the “PBM E-score” value was -0.0187. In the case of AGGAGCCA, the “PBM E-score” value is reported as -0.29. ACAGGCCG was tested, and the “PBM E-score” value was 0.189. With ACTGACGA the “PBM E-score” value was -0.153. In the case of AGATACTC, the “PBM E-score” value is reported as -0.0748. In the case of AGTCTCCG, the “PBM E-score” value is reported as 0.336. GAAAAATA was tested, and the “PBM E-score” value was 0.18. With AAGGACAT the “PBM E-score” value was -0.101. GCTGCCAC was tested, and the “PBM E-score” value was -0.00973. For CTCGTGGA, the “PBM E-score” value was -0.158. For GAGCGTGA, the “PBM E-score” value was -0.0314. For ATAAGGCA, the “PBM E-score” value was 0.0166. With GGGAGCTA the “PBM E-score” value was -0.00543. With CGTACGCC the “PBM E-score” value was 0.0198. With ATGAGTTG the “PBM E-score” value was 0.0781. AAAAATTA was tested, and the “PBM E-score” value was 0.0181. In the case of CTGTCACA, the “PBM E-score” value is reported as -0.293. GAAAGCCA was tested, and the “PBM E-score” value was -0.109. For ATGCGTGC, the “PBM E-score” value was -0.105. GAATGTCC was tested, and the “PBM E-score” value was -0.0179. For ATGAAGAC, the “PBM E-score” value was -0.178. In the case of TAGCTGGA, the “PBM E-score” value is reported as -0.33. In the case of AACTTTAA, the “PBM E-score” value is reported as 0.0938. AAGGATCA was tested, and the “PBM E-score” value was -0.146. For ACTAGGCG, the “PBM E-score” value was 0.0261. CGAATCGA was tested, and the “PBM E-score” value was 0.179. TGCAAACA was tested, and the “PBM E-score” value was -0.366. In the case of CGTTGCTC, the “PBM E-score” value is reported as 0.104. For ATCCCGCG, the “PBM E-score” value was 0.307. GTTGTAGA was tested, and the “PBM E-score” value was -0.0823. For CGTGTCTC, the “PBM E-score” value was 0.0641. AAGCAGAT was tested, and the “PBM E-score” value was -0.0661. For ACGATACC, the “PBM E-score” value was 0.109. With CGTACACA the “PBM E-score” value was -0.0766. In the case of TGCGATAA, the “PBM E-score” value is reported as -0.0908. For ATGTCACC, the “PBM E-score” value was 0.0791. With ATGTAGAA the “PBM E-score” value was -0.0981. In the case of CAATCAAG, the “PBM E-score” value is reported as -0.245. CACAGTTA was tested, and the “PBM E-score” value was -0.193. With AAATCGCC the “PBM E-score” value was 0.0505. With CGAAAAGA the “PBM E-score” value was 0.146. For AACGTGGC, the “PBM E-score” value was -0.0642. With ACTCGGGA the “PBM E-score” value was 0.44. CGATCCGC was tested, and the “PBM E-score” value was 0.325. For AGTATTAC, the “PBM E-score” value was 0.103. For CACTAACG, the “PBM E-score” value was -0.267. For CCTTCCTC, the “PBM E-score” value was -0.27. CGGTAAAA was tested, and the “PBM E-score” value was 0.346. With GACCTGCC the “PBM E-score” value was 0.0159. In the case of GAATATTC, the “PBM E-score” value is reported as 0.274. For GCGTGACC, the “PBM E-score” value was -0.11. AAGCCCAA was tested, and the “PBM E-score” value was -0.125. CACAGAGA was tested, and the “PBM E-score” value was -0.118. In the case of CAACCGGA, the “PBM E-score” value is reported as 0.281. CAATCTAG was tested, and the “PBM E-score” value was 0.0788. For TGAGCTCA, the “PBM E-score” value was -0.157. AATGTCCG was tested, and the “PBM E-score” value was 0.252. For AGACTGGA, the “PBM E-score” value was -0.123. In the case of CACATGTG, the “PBM E-score” value is reported as -0.275. With CATCAACA the “PBM E-score” value was -0.0215. With CCCTCAGG the “PBM E-score” value was -0.0461. ATGATGTC was tested, and the “PBM E-score” value was -0.0462. In the case of ACTGAAAT, the “PBM E-score” value is reported as -0.18. With AGTTACTG the “PBM E-score” value was 0.0303. AGAAATGG was tested, and the “PBM E-score” value was -0.0954. In the case of CCTGGCTA, the “PBM E-score” value is reported as -0.309. In the case of CAGGAGTC, the “PBM E-score” value is reported as -0.0625. With CACAAGGC the “PBM E-score” value was -0.0505. ACATTGGC was tested, and the “PBM E-score” value was -0.103. With ACCGTCGT the “PBM E-score” value was -0.082. For CATCTTCC, the “PBM E-score” value was 0.243. For CACCGGAC, the “PBM E-score” value was 0.215. With GGGCGAAC the “PBM E-score” value was 0.05. With CGGGCGAA the “PBM E-score” value was 0.158. For GTCGGTTA, the “PBM E-score” value was 0.343. AAGCGAAC was tested, and the “PBM E-score” value was -0.102. With ATACGACC the “PBM E-score” value was -0.119. In the case of CGCGCTCA, the “PBM E-score” value is reported as -0.26. With CTATTTCA the “PBM E-score” value was 0.0134. In the case of CTGGGCTA, the “PBM E-score” value is reported as -0.0338. With AAATCATA the “PBM E-score” value was 0.0586. CGCCAGGA was tested, and the “PBM E-score” value was -0.169. With AGCGACGG the “PBM E-score” value was 0.1. For ACGAGCAG, the “PBM E-score” value was -0.195. In the case of ATCCAACG, the “PBM E-score” value is reported as -0.1. In the case of AATGCATT, the “PBM E-score” value is reported as -0.0711. With AAGGAAAC the “PBM E-score” value was 0.0426. With ACCCAGTG the “PBM E-score” value was -0.234. With GACGGGAC the “PBM E-score” value was 0.213. GAATCCAA was tested, and the “PBM E-score” value was 0.0533.
